From paper PMC4336329 (PLoS ONE, 2015)
Among all 310,000 compounds or so, about 2,200 (0.71%) showed an effect of 50% or more. Effects have a minus sign here. The list shows a part of the results.

Target: human ether-à-go-go-related gene (hERG) potassium channel (human, UniProt Q12809)
Assay: primary screen, population patch clamp on CHO cells stably expressing hERG

Chain of human ether-à-go-go-related gene (hERG) potassium channel (Q12809 whole entry, looked up): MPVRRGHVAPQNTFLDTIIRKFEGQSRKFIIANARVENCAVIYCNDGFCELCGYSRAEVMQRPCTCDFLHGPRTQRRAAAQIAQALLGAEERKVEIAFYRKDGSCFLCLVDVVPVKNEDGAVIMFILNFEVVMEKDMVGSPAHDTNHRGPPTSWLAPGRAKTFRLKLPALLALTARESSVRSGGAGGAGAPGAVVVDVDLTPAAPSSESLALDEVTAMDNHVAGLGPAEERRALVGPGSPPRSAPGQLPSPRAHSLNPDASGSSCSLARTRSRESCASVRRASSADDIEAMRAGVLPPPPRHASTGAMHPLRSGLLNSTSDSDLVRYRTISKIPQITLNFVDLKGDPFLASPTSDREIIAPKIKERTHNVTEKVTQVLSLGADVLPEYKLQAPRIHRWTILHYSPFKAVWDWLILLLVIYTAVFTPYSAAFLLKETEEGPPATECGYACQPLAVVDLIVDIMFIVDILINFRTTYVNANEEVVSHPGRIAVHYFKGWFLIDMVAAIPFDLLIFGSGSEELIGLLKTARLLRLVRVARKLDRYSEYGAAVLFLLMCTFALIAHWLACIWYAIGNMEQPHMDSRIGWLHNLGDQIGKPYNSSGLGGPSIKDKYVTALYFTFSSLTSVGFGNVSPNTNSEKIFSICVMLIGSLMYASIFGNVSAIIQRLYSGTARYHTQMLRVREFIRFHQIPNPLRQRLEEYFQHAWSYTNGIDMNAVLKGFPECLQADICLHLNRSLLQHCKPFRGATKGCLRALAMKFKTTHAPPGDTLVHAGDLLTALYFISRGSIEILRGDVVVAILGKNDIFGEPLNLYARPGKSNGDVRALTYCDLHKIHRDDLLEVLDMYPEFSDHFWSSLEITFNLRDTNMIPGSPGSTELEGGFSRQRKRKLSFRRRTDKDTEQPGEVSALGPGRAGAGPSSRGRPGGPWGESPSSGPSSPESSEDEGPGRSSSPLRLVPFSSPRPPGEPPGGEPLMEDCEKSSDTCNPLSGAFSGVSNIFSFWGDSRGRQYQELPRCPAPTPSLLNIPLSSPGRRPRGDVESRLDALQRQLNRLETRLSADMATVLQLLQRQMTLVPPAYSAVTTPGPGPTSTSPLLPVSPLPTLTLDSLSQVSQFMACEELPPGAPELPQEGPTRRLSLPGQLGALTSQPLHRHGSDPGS

Row | SMILES | hERG current change (%, negative = inhibition) at 1uM
1 | CCn1cc([N+](=O)[O-])c(C(=O)Nc2ccc(Br)cn2)n1 | -14.8%
2 | O=C(Nc1ccnn1C1CCN(CCCC2CCCC2)CC1)c1ccccc1 | -60.9%
3 | CCOc1cc(/C=C2\C(=O)ON=C2c2ccccc2)ccc1OC | 17.4%
4 | COc1cc(OC)cc(-c2nnc(Sc3ccc(C=O)cc3[N+](=O)[O-])o2)c1 | 0.431%
5 | Cc1cccc(N2CC(c3nc4ccccc4n3C)CC2=O)c1C (stereo not shown) | 2.01%
6 | c1ccc(CSc2nnnn2-c2ccccc2)cc1 | 9.14%
7 | COc1ccc(-c2noc(CCC(=O)NCC3CCN(Cc4cccc(C)c4)CC3)n2)cc1 | -35.5%
8 | CCCn1c(C(O)c2ccc(OC)cc2)nc2ccccc21 (stereo not shown) | 10.6%
9 | N#CCCN(C(=O)CSc1ncccn1)c1ccc2c(c1)OCCO2 | 3.53%
10 | COc1ccccc1C(=O)NCCC(=O)NNC(=O)Cn1ccc(C(F)(F)F)n1 | -0.724%
11 | CC(C)(Cc1nc2ccccc2[nH]1)C(=O)O | -3.82%
12 | COc1ccc(/C=C2\N=C(C)N(c3ccc4ccccc4c3)C2=O)cc1OC | 2.16%
13 | COc1ccc2ccn(C)c2c1 | 10.9%
14 | Cc1cccn2c(=O)c(/C=N/O)c(N3CCCCC3)nc12 | 4.69%
15 | COc1cc2c(cc1NC(=O)CN1CCN(S(=O)(=O)c3ccc(F)cc3)CC1)oc1ccccc12 | 7.76%
16 | CCN1CCN(CCCNC(=O)CCC(=O)N2CC(C)Oc3ccc(C)cc32)CC1 (stereo not shown) | 6.55%
17 | COc1ccc(N(C(=O)c2ccc(Br)o2)C2C=CS(=O)(=O)C2)cc1 (stereo not shown) | -10.1%
18 | NC(=O)C1CCN(c2ncnc3c2c(-c2ccccc2)cn3-c2ccccc2)CC1 | 10.2%
19 | C=CCc1cccc(/C=N/NC(=O)CCCNc2ccc(C)cc2)c1O | 11.9%
20 | CC(=O)c1ccc(NC(=S)NCCc2ccc(S(N)(=O)=O)cc2)cc1 | 15.7%
21 | Cc1ccc(N2C(=O)C(Cl)=C(N3CCOCC3)C2=O)cc1Cl | -10.9%
22 | COc1ccc2c(c1)CCc1c-2n[nH]c1C(=O)O | 12.4%

Row | SMILES | hERG current change (%, negative = inhibition) at 1uM
23 | O=C(c1ccccc1)N1CCN(C(=O)C2CC2)CC1 | 16.7%
24 | Cc1cc(C(=O)CCC(=O)NNC(=O)c2ccccc2O)c(C)s1 | 8.28%
25 | COC(=O)/C=C/c1ccccc1CN1[C@@H](CC(=O)OC)c2ccccc2S1(=O)=O | 9.09%
26 | COc1ccc(CC(=O)NCc2ccccc2)cc1S(=O)(=O)N1CCOCC1 | 9.22%
27 | CCN(CC(=O)Nc1ccccc1C(F)(F)F)C(=O)c1oc2c(Cl)cccc2c1C | 4.84%
28 | O=C1Nc2ccc(Br)cc2C12NNc1ccccc1O2 (stereo not shown) | 10.8%
29 | CCC(=O)N1CCc2cc(S(=O)(=O)N(CC)c3cccc(C)c3)ccc21 | -7.47%
30 | O=C(CSc1cc(Cl)ccc1Cl)NC1CC1 | 4.67%
31 | CC1CCN(c2ccc(-c3cccc(NC(=O)C(F)(F)F)c3)nn2)CC1 | 0.79%
32 | CCN1CCN(C(=O)c2cc3c(-c4ccc(Cl)cc4)nn(C)c3s2)CC1 | -15.7%
33 | CCOC(=O)N1CCN(C(=O)CCN2C(=O)COc3ccc(C)cc32)CC1 | 2.66%
34 | Cc1cccc(C(=O)N=c2c(C#N)cc3c(=O)n4cccc(C)c4nc3n2Cc2ccco2)c1 | -23.4%
35 | Cc1ccc(-c2nc3cc(NC(=O)C(C)C)ccc3o2)cc1 | 6.97%
36 | CC1CCCC(NC(=O)CSc2ncccc2C(=O)O)C1C (stereo not shown) | 8.49%
37 | CN(CCOC(=O)c1ccco1)Cc1ccccc1 | 4.43%
38 | COC(=O)CCN(C(=O)c1ccc(N2CCCCC2)c([N+](=O)[O-])c1)c1ccccn1 | 11.8%
39 | COc1cc2ccccc2cc1C(=O)Nc1ccc(C)cc1 | 11.9%
40 | COc1cc(C(=O)Oc2ccccc2/C=N/NC(=O)c2ccc(Cl)cc2)cc(OC)c1OC | 12%
41 | C=CCNC(=O)C1CC1(c1ccccc1)c1ccccc1 (stereo not shown) | 3.83%
42 | COC(=O)c1c(C(=O)OC)c2cc(C(=O)c3ccccc3)ccn2c1Cl | 2.87%
43 | Brc1ccccc1OCCCCN1CCCCC1 | -1.28%
44 | COc1cc(Cl)ccc1OCc1cc(C(=O)N2C[C@H]3CC[C@H]2C3)no1 | 15.3%

Row | SMILES | hERG current change (%, negative = inhibition) at 1uM
45 | CCN(CC)S(=O)(=O)c1ccc(N2CCCC2)c(C(=O)OCC(=O)Nc2cc(C)on2)c1 | 7.53%
46 | CCOC(=O)c1sc(NC(=O)C(OC(C)=O)c2ccccc2)nc1C (stereo not shown) | 4.99%
47 | CCN1CCN(CCCN(Cc2ccco2)C(=S)Nc2ccc(Cl)c(C)c2)CC1 | -21%
48 | CC(C)C(NC(=O)c1c(F)cccc1F)C(=O)OCN1C(=O)c2ccccc2C1=O (stereo not shown) | 15.6%
49 | COc1ccc(-n2c(=S)[nH]c3cc(C(=O)NCc4ccco4)ccc3c2=O)cc1OC | 6.16%
50 | COC(=O)c1cccc(N2C(=O)C(Cl)=C(N3CCOCC3)C2=O)c1 | -1.72%
51 | COc1cc2nc(C3CC3)n(NC(=O)c3ccc(F)cc3)c(=O)c2cc1OC | 7.89%
52 | Cc1ccc(CNC(=O)CSc2nc(=O)n3cccc(C)c3n2)cc1 | 2%
53 | CC1(C)C(=O)Nc2ccccc2N1C(=O)Cn1ncc(Cl)c(Cl)c1=O | 14.9%
54 | CSc1ccc(/C=C(/NC(=O)c2ccccc2)C(=O)N2CCN(C)CC2)cc1 | -48.7%
55 | Cc1cccnc1NC(=O)c1ccc([N+](=O)[O-])o1 | 3.55%
56 | Cc1nnc(SC(C(=O)Nc2cc(Cl)cc(Cl)c2)c2ccccc2)[nH]c1=O (stereo not shown) | 11.1%
57 | CN1C(=O)C2(c3ccccc31)N(C)CC(c1ccccc1)C21SC(=S)N(Cc2ccco2)C1=O (stereo not shown) | 8.25%
58 | O=C(NNC(=S)Nc1ccccc1Cl)c1ccccc1Br | 19.2%
59 | ONC(=Nc1ccc(Cl)cc1)c1ccc(Cl)cc1 | 0.0458%
60 | O=[N+]([O-])c1cccc(NC(=S)N2CCOCC2)c1 | 14.1%
61 | Cc1oc2c(C)c(O)ccc2c(=O)c1N1C(=O)c2ccccc2C1=O | 3.65%
62 | CCN(C(=O)Cn1nc(C)c([N+](=O)[O-])c1C)C1CCS(=O)(=O)C1 (stereo not shown) | 14.6%
63 | CCOC(=O)CSc1nnc(CNC(=O)c2ccc(OC)cc2OC)n1C | -6.27%
64 | Cc1ccc(-c2cc(-c3c(C)nn(C)c(=O)c3N)[nH]n2)cc1 | 13.8%
65 | O=C(NCc1ccc(Cl)c(Cl)c1)C1CCCC1 | 0.519%
66 | CN(CC(=O)Nc1c(Cl)cccc1Cl)C(=O)c1ccccc1SCC(=O)N1CCCC1 | 9.02%

Row | SMILES | hERG current change (%, negative = inhibition) at 1uM
67 | COC(=O)c1sc(NC(=O)/C=C/c2ccc(C)o2)nc1C | 19.6%
68 | COc1cc(/C=N/NC(=O)c2ccc3c(c2)OCCO3)cc(Br)c1O | 0.0005%
69 | CCOC(=O)N1CCN(C(=O)c2ccccc2N(Cc2ccccc2)S(=O)(=O)c2ccc(OC)cc2)CC1 | -0.0391%
70 | O=C(CC1SC(=O)N(Cc2cccc3ccccc23)C1=O)Nc1nccs1 (stereo not shown) | 8.62%
71 | Cc1ccc(S(=O)(=O)Cn2nnnc2C(C(C)C)N2CCN(c3nc4ccccc4s3)CC2)cc1 (stereo not shown) | 16.3%
72 | Cc1ccc(CNC(=O)C2CCCN(C(=O)N(C)C)C2)cc1 (stereo not shown) | 1.95%
73 | COc1ccc(C(=O)NC2CC2)cc1OC1CCN(Cc2ccc(F)cc2Cl)CC1 | -62%
74 | Cc1nc2ccc(Nc3ccncc3)cc2s1 | -0.0672%
75 | CN1CCN(C2=C(Cl)C(=O)C(c3cnc(N4CCCCC4)s3)=C(Cl)C2=O)CC1 | 17.3%
76 | O=C(NCCC(=O)N1CCN(c2ncccn2)CC1)c1ccccc1Cl | 10.3%
77 | COc1ccc(NC(=O)CNC(c2ccccc2)c2ccccc2)cc1Cl | 16.6%
78 | COc1ccc(Nc2nc3ccc(C)cc3cc2C#N)c(OC)c1 | 4.78%
79 | COc1cccc(C(=O)N2CCN(C3CCC(c4ccccc4)CC3)CC2)c1OC.O=C(O)C(=O)O (stereo not shown) | 3.34%
80 | CC1=NN(c2ccccc2)C(=O)C1N=Nc1cccc(O)c1 (stereo not shown) | 12.9%
81 | Cc1ccsc1/C=N/NC(=O)c1nnn(-c2nonc2N)c1-c1ccc2c(c1)OCO2 | 0.197%
82 | Cc1ccc(C)n1-c1ccc(C(=O)NCc2cccnc2)cc1 | 10.2%
83 | Cc1ccc(C)c(OCCC(=O)N2CCN(S(=O)(=O)c3cc(C)ccc3C)CC2)c1 | 12.2%
84 | O=C(COc1nncc2ccccc12)Nc1ccc(Br)cc1F | 14.5%
85 | CCOC(=O)CC(=O)CSc1nc(-c2cccnc2)cc(C)c1C#N | 1.05%
86 | COC(=O)c1cc(OC)c(OC)cc1NC(=S)N1CCCC1 | 10.4%
87 | CCOC(=O)c1c(-c2ccc(Cl)cc2)cn2ccccc12 | 8.58%
88 | COc1ccccc1CC(=O)Nc1ccon1 | 10.6%
